In PMC12820563, “FoxP3 forms a head-to-head dimer in vivo and stabilizes its multimerization on adjacent microsatellites”:
The list shows a part of the results.

Target: T1, MBP-FoxP1dN (Mus musculus, UniProt P58462 326-579)
T1 sequence: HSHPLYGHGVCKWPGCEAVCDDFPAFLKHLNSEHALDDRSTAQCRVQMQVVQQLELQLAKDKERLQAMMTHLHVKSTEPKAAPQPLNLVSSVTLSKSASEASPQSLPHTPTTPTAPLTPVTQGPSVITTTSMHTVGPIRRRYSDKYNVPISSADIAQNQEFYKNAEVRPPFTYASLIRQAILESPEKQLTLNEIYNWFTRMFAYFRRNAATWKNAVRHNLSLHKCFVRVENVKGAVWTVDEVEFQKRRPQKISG
Assay: PD-seq (MBP pull-down with sequencing); 20 mM Tris-HCl pH 7.5, 100 mM NaCl, 1.5 mM MgCl2, 0.4 uM protein, 0.1 uM dsDNA library, 30 min, room temperature, amylose pull-down; high values mean tight binding
Settings: protein: recombinant; tags: His6-MBP; chain copies: 2; dsDNA, one strand shown
Procedure, shortened: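 E. coli-expressed mouse FoxP3 or FoxP1 fragment, N-terminus removed and tagged with His6-MBP, was used at 0.4 µM against 0.1 µM of a Klenow-filled degenerate double-stranded DNA library. After 30 min at room temperature in Tris pH 7.5 buffer with NaCl and MgCl2, complexes were pulled down on amylose resin and washed three times. Binding is pull-down over input reads-per-million enrichment from pooled replicates of the proteinase K-released, PCR-barcoded, Illumina-sequenced DNA.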

Row | Sequence | binding signal
1 | GATGATTGTTCTCCCAGCTGATGAATTGTGGCTCTCGAGTAAACAAATTTTCCTAATCTTTCTGTTCAAGCGCCATCTAC | 0.98 RPM ratio (pull-down/input)
2 | GATGATTGTTCTCCCAGCTGATGAATTATGGACGTCGAGTAAACAAATTTTCCTAATCTTTCTGTTCAAGCGCCATCTAC | 0.907 RPM ratio (pull-down/input)
3 | GATGATTGTTCTCCCAGCTGATGAATTTTGAAGATCGAGTAAACAAATTTTCCTAATCTTTCTGTTCAAGCGCCATCTAC | 0.933 RPM ratio (pull-down/input)
4 | GATGATTGTTCTCCCAGCTGATGAATTGTCGTGTTCGAGTAAACAAATTTTCCTAATCTTTCTGTTCAAGCGCCATCTAC | 1.07 RPM ratio (pull-down/input)
5 | GATGATTGTTCTCCCAGCTGATGAATTGCGTCCGTCGAGTAAACAAATTTTCCTAATCTTTCTGTTCAAGCGCCATCTAC | 1.04 RPM ratio (pull-down/input)
6 | GATGATTGTTCTCCCAGCTGATGAATTATGAAACTCGAGTAAACAAATTTTCCTAATCTTTCTGTTCAAGCGCCATCTAC | 0.945 RPM ratio (pull-down/input)
7 | GATGATTGTTCTCCCAGCTGATGAATTTACTGGGTCGAGTAAACAAATTTTCCTAATCTTTCTGTTCAAGCGCCATCTAC | 1.05 RPM ratio (pull-down/input)
8 | GATGATTGTTCTCCCAGCTGATGAATTATTTCTGTCGAGTAAACAAATTTTCCTAATCTTTCTGTTCAAGCGCCATCTAC | 1.11 RPM ratio (pull-down/input)
9 | GATGATTGTTCTCCCAGCTGATGAATTTTTCGGATCGAGTAAACAAATTTTCCTAATCTTTCTGTTCAAGCGCCATCTAC | 0.904 RPM ratio (pull-down/input)
10 | GATGATTGTTCTCCCAGCTGATGAATTCGGCGAATCGAGTAAACAAATTTTCCTAATCTTTCTGTTCAAGCGCCATCTAC | 0.819 RPM ratio (pull-down/input)
11 | GATGATTGTTCTCCCAGCTGATGAATTACAATAGTCGAGTAAACAAATTTTCCTAATCTTTCTGTTCAAGCGCCATCTAC | 1.26 RPM ratio (pull-down/input)
12 | GATGATTGTTCTCCCAGCTGATGAATTACATAATTCGAGTAAACAAATTTTCCTAATCTTTCTGTTCAAGCGCCATCTAC | 1.43 RPM ratio (pull-down/input)
13 | GATGATTGTTCTCCCAGCTGATGAATTAAACAAGTCGAGTAAACAAATTTTCCTAATCTTTCTGTTCAAGCGCCATCTAC | 1.71 RPM ratio (pull-down/input)
14 | GATGATTGTTCTCCCAGCTGATGAATTGCAATCGTCGAGTAAACAAATTTTCCTAATCTTTCTGTTCAAGCGCCATCTAC | 1.24 RPM ratio (pull-down/input)
15 | GATGATTGTTCTCCCAGCTGATGAATTGGAAACCTCGAGTAAACAAATTTTCCTAATCTTTCTGTTCAAGCGCCATCTAC | 0.764 RPM ratio (pull-down/input)
16 | GATGATTGTTCTCCCAGCTGATGAATTGTTGGCCTCGAGTAAACAAATTTTCCTAATCTTTCTGTTCAAGCGCCATCTAC | 1.27 RPM ratio (pull-down/input)
17 | GATGATTGTTCTCCCAGCTGATGAATTTTCCTCATCGAGTAAACAAATTTTCCTAATCTTTCTGTTCAAGCGCCATCTAC | 0.905 RPM ratio (pull-down/input)
18 | GATGATTGTTCTCCCAGCTGATGAATTATAAACATCGAGTAAACAAATTTTCCTAATCTTTCTGTTCAAGCGCCATCTAC | 2.42 RPM ratio (pull-down/input)
19 | GATGATTGTTCTCCCAGCTGATGAATTACACGGGTCGAGTAAACAAATTTTCCTAATCTTTCTGTTCAAGCGCCATCTAC | 0.97 RPM ratio (pull-down/input)
20 | GATGATTGTTCTCCCAGCTGATGAATTTGTCCGATCGAGTAAACAAATTTTCCTAATCTTTCTGTTCAAGCGCCATCTAC | 0.925 RPM ratio (pull-down/input)

Row | Sequence | binding signal
21 | GATGATTGTTCTCCCAGCTGATGAATTACGGATATCGAGTAAACAAATTTTCCTAATCTTTCTGTTCAAGCGCCATCTAC | 1.1 RPM ratio (pull-down/input)
22 | GATGATTGTTCTCCCAGCTGATGAATTGATGTAGTCGAGTAAACAAATTTTCCTAATCTTTCTGTTCAAGCGCCATCTAC | 1.11 RPM ratio (pull-down/input)
23 | GATGATTGTTCTCCCAGCTGATGAATTAGTATCGTCGAGTAAACAAATTTTCCTAATCTTTCTGTTCAAGCGCCATCTAC | 1.06 RPM ratio (pull-down/input)
24 | GATGATTGTTCTCCCAGCTGATGAATTTCAAGTGTCGAGTAAACAAATTTTCCTAATCTTTCTGTTCAAGCGCCATCTAC | 0.848 RPM ratio (pull-down/input)
25 | GATGATTGTTCTCCCAGCTGATGAATTATGCATATCGAGTAAACAAATTTTCCTAATCTTTCTGTTCAAGCGCCATCTAC | 1.23 RPM ratio (pull-down/input)
26 | GATGATTGTTCTCCCAGCTGATGAATTGCGTTTTTCGAGTAAACAAATTTTCCTAATCTTTCTGTTCAAGCGCCATCTAC | 1.3 RPM ratio (pull-down/input)
27 | GATGATTGTTCTCCCAGCTGATGAATTCTGCTTATCGAGTAAACAAATTTTCCTAATCTTTCTGTTCAAGCGCCATCTAC | 1.56 RPM ratio (pull-down/input)
28 | GATGATTGTTCTCCCAGCTGATGAATTTCCGCCGTCGAGTAAACAAATTTTCCTAATCTTTCTGTTCAAGCGCCATCTAC | 0.812 RPM ratio (pull-down/input)
29 | GATGATTGTTCTCCCAGCTGATGAATTGGCCTACTCGAGTAAACAAATTTTCCTAATCTTTCTGTTCAAGCGCCATCTAC | 0.846 RPM ratio (pull-down/input)
30 | GATGATTGTTCTCCCAGCTGATGAATTCCGGTTCTCGAGTAAACAAATTTTCCTAATCTTTCTGTTCAAGCGCCATCTAC | 0.774 RPM ratio (pull-down/input)
31 | GATGATTGTTCTCCCAGCTGATGAATTGAGGGAGTCGAGTAAACAAATTTTCCTAATCTTTCTGTTCAAGCGCCATCTAC | 0.742 RPM ratio (pull-down/input)
32 | GATGATTGTTCTCCCAGCTGATGAATTCTCGGACTCGAGTAAACAAATTTTCCTAATCTTTCTGTTCAAGCGCCATCTAC | 0.778 RPM ratio (pull-down/input)
33 | GATGATTGTTCTCCCAGCTGATGAATTATTAATCTCGAGTAAACAAATTTTCCTAATCTTTCTGTTCAAGCGCCATCTAC | 1.07 RPM ratio (pull-down/input)
34 | GATGATTGTTCTCCCAGCTGATGAATTGGTGGAATCGAGTAAACAAATTTTCCTAATCTTTCTGTTCAAGCGCCATCTAC | 0.94 RPM ratio (pull-down/input)
35 | GATGATTGTTCTCCCAGCTGATGAATTTCTAAATTCGAGTAAACAAATTTTCCTAATCTTTCTGTTCAAGCGCCATCTAC | 0.983 RPM ratio (pull-down/input)
36 | GATGATTGTTCTCCCAGCTGATGAATTGAACCTATCGAGTAAACAAATTTTCCTAATCTTTCTGTTCAAGCGCCATCTAC | 0.946 RPM ratio (pull-down/input)
37 | GATGATTGTTCTCCCAGCTGATGAATTCCCTTTGTCGAGTAAACAAATTTTCCTAATCTTTCTGTTCAAGCGCCATCTAC | 0.82 RPM ratio (pull-down/input)
38 | GATGATTGTTCTCCCAGCTGATGAATTCGCGCCGTCGAGTAAACAAATTTTCCTAATCTTTCTGTTCAAGCGCCATCTAC | 0.86 RPM ratio (pull-down/input)
39 | GATGATTGTTCTCCCAGCTGATGAATTATGCGGTTCGAGTAAACAAATTTTCCTAATCTTTCTGTTCAAGCGCCATCTAC | 0.993 RPM ratio (pull-down/input)
40 | GATGATTGTTCTCCCAGCTGATGAATTGTAGGAGTCGAGTAAACAAATTTTCCTAATCTTTCTGTTCAAGCGCCATCTAC | 0.879 RPM ratio (pull-down/input)
